Measured values reported in publication PMC9119685.
Results are given in words; binding and its absence hold for the method and conditions named. Binding seen in cells or lysates may run through a third protein.

Target: tripartite-motif family member 25 (TRIM25), wild type (human), Q14258
Assay: co-IP
Conditions: remark: other sources report otherwise

B1: zinc-finger antiviral protein, short splice variant (ZAP-S), Q7Z2W4-2 1-699 (protein)
chain: MADPEVCCFITKILCAHGGRMALDALLQEIALSEPQLCEVLQVAGPDRFVVLETGGEAGITRSVVATTRARVCRRKYCQRPCDNLHLCKLNLLGRCNYSQSERNLCKYSHEVLSEENFKVLKNHELSGLNKEELAVLLLQSDPFFMPEICKSYKGEGRQQICNQQPPCSRLHICDHFTRGNCRFPNCLRSHNLMDRKVLAIMREHGLNPDVVQNIQDICNSKHMQKNPPGPRAPSSHRRNMAYRARSKSRDRFFQGSQEFLASASASAERSCTPSPDQISHRASLEDAPVDDLTRKFTYLGSQDRARPPSGSSKATDLGGTSQAGTSQRFLENGSQEDLLHGNPGSTYLASNSTSAPNWKSLTSWTNDQGARRKTVFSPTLPAARSSLGSLQTPEAVTTRKGTGLLSSDYRIINGKSGTQDIQPGPLFNNNADGVATDITSTRSLNYKSTSSGHREISSPRIQDAGPASRDVQATGRIADDADPRVALVNDSLSDVTSTTSSRVDDHDSEEICLDHLCKGCPLNGSCSKVHFHLPYRWQMLIGKTWTDFEHMETIEKGYCNPGIHLCSVGSYTINFRVMSCDSFPIRRLSTPSSVTKPANSVFTTKWIWYWKNESGTWIQYGEEKDKRKNSNVDSSYLESLYQSCPRGVVPFQAGSRNYELSFQGMIQTNIASKTQKDVIRRPTFVPQWYVQQMKRGPE
  binding: no binding
